{
  "source": "ChEMBL document CHEMBL4888484",
  "about": "“Replenishing the malaria drug discovery pipeline: Screening and hit evaluation of the MMV Hit Generation Library 1 (HGL1) against asexual blood stage Plasmodium falciparum ,using a nano luciferase reporter read-out” (2022)",
  "note": "About 540 (0.36%) of roughly 150,000 compounds showed an effect of 50% or more. The list shows a part of the results.",
  "data": [
    {"test_system": "Plasmodium falciparum", "experiment": "Primary screen in NF54 nanoGlo assay, in single point, at 2uM, 72h; a lower Z score goes with more inhibition", "type": "functional, Erythrocyte", "details": "timepoint 72 hour", "units": {"% Inhibition": "%"}, "values": [
      {"smiles": "COCC(=O)NCCCc1ccc(Br)cc1F", "% Inhibition": -11, "Z score": 1.61},
      {"smiles": "CCc1noc(COc2nc(C(C)(C)C)no2)n1", "% Inhibition": -13, "Z score": 1.32},
      {"smiles": "Cc1cccnc1C[C@H](C)NC(=O)Cn1nnnc1CN1CCCC1", "% Inhibition": -3, "Z score": 0.37},
      {"smiles": "COc1ccc(CN2CC[C@H](N3CCC(CO)CC3)C2=O)cc1", "% Inhibition": -3, "Z score": 0.58},
      {"smiles": "O=c1c2cnccc2ncn1[C@@H]1COC2(CCCCC2)C1", "% Inhibition": -2, "Z score": 0.42},
      {"smiles": "Cn1ccc([C@@H]2CCCCN2C(=O)c2ccc3sccc3c2)n1", "% Inhibition": -17, "Z score": 1.97},
      {"smiles": "O=C(CNC(=O)c1ccsc1)Nc1cc(C(F)(F)F)ccc1O", "% Inhibition": -9, "Z score": 1.48},
      {"smiles": "COc1ccc(CN2C[C@H]3CN(Cc4ccc(S(C)(=O)=O)cc4)CCN3C2=O)cc1", "% Inhibition": 11, "Z score": -1.3},
      {"smiles": "C[C@H]1c2ccc(F)cc2CCN1S(=O)(=O)c1cccnc1", "% Inhibition": -9, "Z score": 1.56},
      {"smiles": "Cc1c(F)c(F)c(CN2CCOC2=O)c(F)c1F", "% Inhibition": 1, "Z score": -0.16},
      {"smiles": "CCC(C)[C@H](NS(=O)(=O)c1ccc(C)cc1)C(=O)N1CCC(C(=O)NC2(C(=O)O)CCCCC2)CC1", "note": "(stereo partly drawn)", "% Inhibition": -13, "Z score": 1.66},
      {"smiles": "CN(CCCc1nccn1C)C(=O)Cn1ccc2ccccc21", "% Inhibition": -4, "Z score": 0.67},
      {"smiles": "CCOC(=O)[C@H]1CCCN(C(=O)c2nc(C3CCC3)oc2C)C1", "% Inhibition": 0, "Z score": 0.03},
      {"smiles": "CC1(C#N)CN(C(=O)NCC(F)(F)F)C1", "% Inhibition": 5, "Z score": -0.67},
      {"smiles": "Cc1cnc(C(=O)Nc2ncc(Cc3cccc4ccccc34)s2)cn1", "% Inhibition": -11, "Z score": 1.41},
      {"smiles": "COc1ccc(N2CCCN(Cc3ccccc3)C2=O)c(NC(=O)Cc2ccc(F)cc2)c1", "% Inhibition": 0, "Z score": 0.02},
      {"smiles": "CCN(CCCN1CCCC1)S(=O)(=O)c1cnc(C)c(C#N)c1", "% Inhibition": 3, "Z score": -0.52},
      {"smiles": "CCC1CC(NC(=O)NC2CCCN(C)C2=O)CCO1", "note": "(stereo not drawn)", "% Inhibition": -3, "Z score": 0.63},
      {"smiles": "CCC1CCN(C(=O)Cc2cnoc2)CC1", "% Inhibition": -5, "Z score": 1.07},
      {"smiles": "CC1(C)C(=O)NC(=O)N1CC(=O)OCc1cccc2cccnc12", "% Inhibition": -7, "Z score": 0.97},
      {"smiles": "CS(=O)(=O)N1C[C@H]2CC[C@@H](C1)N(C(=O)c1ccc(Cl)cc1O)C2", "% Inhibition": -13, "Z score": 2.36},
      {"smiles": "Nc1ccc(Oc2nc3ccccc3s2)c(Cl)c1", "% Inhibition": -8, "Z score": 1.55},
      {"smiles": "CCN(CC)CC[C@H]1CN(C(=O)c2ccc(N(C)C)cc2)CC[C@H]1CC(=O)O", "% Inhibition": 2, "Z score": -0.25},
      {"smiles": "CCCCNC(=O)Nc1cccc(C#CCO)n1", "% Inhibition": -11, "Z score": 1.08},
      {"smiles": "COc1ccc(C2CC(O)(C#Cc3ccccc3)C(C)C(c3ccc(OC)cc3)N2)cc1", "note": "(stereo not drawn)", "% Inhibition": -8, "Z score": 0.74},
      {"smiles": "CN(C(=O)c1cccs1)c1cccc2ncccc12", "% Inhibition": 5, "Z score": -0.5},
      {"smiles": "CN(C)c1ccc(NC(=O)c2cn(C)nn2)cc1", "% Inhibition": 1, "Z score": -0.21},
      {"smiles": "Cn1nnc2c(C(=O)N3CCC(C(F)F)CC3)ccnc21", "% Inhibition": 5, "Z score": -0.7},
      {"smiles": "COc1ccccc1N1CCN(C(=O)c2ccc(CN3C(=O)COc4ccc(C(C)(C)C)cc43)cc2)CC1", "% Inhibition": 1, "Z score": -0.14},
      {"smiles": "COCCNC(=O)CCc1c(-c2ccc(Cl)cc2)nc2ccc(-c3ccccc3)cn12", "% Inhibition": -3, "Z score": 0.62},
      {"smiles": "CCc1cc(C(=O)N2CCC[C@@]3(CCCO3)CC2)cc(=O)[nH]1", "% Inhibition": -5, "Z score": 0.47},
      {"smiles": "COC(=O)c1ncn2c1C(=O)N(Cc1ccc(C)cc1)[C@](C)(C(=O)NCc1ccccc1OC)C2", "% Inhibition": -7, "Z score": 0.91},
      {"smiles": "CC(=O)Nc1ccc(C(=O)N2C[C@@H](C)N(C)[C@@H](C)C2)nc1", "% Inhibition": -3, "Z score": 0.41},
      {"smiles": "C[C@H](NC(=O)c1cnc(Cc2c(Cl)cccc2Cl)nc1O)C(N)=O", "% Inhibition": -15, "Z score": 1.78},
      {"smiles": "CC[C@](C)(NC(=O)c1ccccc1)c1noc(-c2cc(C(C)C)[nH]n2)n1", "% Inhibition": -1, "Z score": 0.09},
      {"smiles": "O=C(C1COc2ccccc2O1)N1CCOC(c2ncon2)C1", "note": "(stereo not drawn)", "% Inhibition": -6, "Z score": 0.81},
      {"smiles": "Cc1ccc(C(=O)Nc2cccnc2N(C)C)cn1", "% Inhibition": -2, "Z score": 0.26},
      {"smiles": "O=C(NCC1CCC1)c1cccnc1O", "% Inhibition": 0, "Z score": -0.05},
      {"smiles": "CN1CC(C(=O)NC[C@@H]2C[C@H]2c2ccccc2)CC1=O", "note": "(stereo partly drawn)", "% Inhibition": -9, "Z score": 1.09},
      {"smiles": "Cc1nn(-c2ccc(C(=O)N3CCC(Cc4ccccc4)CC3)cc2)c2c1C(=O)CC(C)(C)C2", "% Inhibition": -11, "Z score": 0.97},
      {"smiles": "CC(C)Oc1ccc(C(=O)N2C3CCC2CC(n2cccn2)C3)cc1", "note": "(stereo not drawn)", "% Inhibition": -8, "Z score": 1.01},
      {"smiles": "CCn1ccc(CNC(=O)N[C@H](C)c2ccc(Cl)cc2)n1", "% Inhibition": 0, "Z score": -0.01},
      {"smiles": "COc1ccc(-n2ncc(Oc3cccc(C)c3)c(Nc3cccc(C(=O)NCc4ccc(F)cc4)c3)c2=O)cc1", "% Inhibition": 41, "Z score": -3.27},
      {"smiles": "CCCN(C)C(=O)C1C2C(=O)N(Cc3cccc(OC)c3)C[C@@]23C=C[C@@H]1O3", "note": "(stereo partly drawn)", "% Inhibition": 4, "Z score": -0.57},
      {"smiles": "CC(CNC(=O)N1CCCC1c1ccncc1)c1nccs1", "note": "(stereo not drawn)", "% Inhibition": -7, "Z score": 0.99},
      {"smiles": "CN(Cc1nccs1)S(=O)(=O)Cc1ccc(Cl)cc1F", "% Inhibition": -2, "Z score": 0.4},
      {"smiles": "CN(Cc1ccccc1Cn1cccn1)[C@H]1COC[C@@H]1O", "% Inhibition": -10, "Z score": 0.92},
      {"smiles": "Cc1cccc(CN2CCC[C@@]3(CCN(C(=O)c4cc(C)oc4C)C3)C2)c1", "% Inhibition": -10, "Z score": 0.93},
      {"smiles": "COc1ccc(S(=O)(=O)N(Cc2cc(C3CC3)no2)c2nccs2)cc1", "% Inhibition": -10, "Z score": 1.88},
      {"smiles": "COc1nc(CNC(=O)Nc2ccccc2)nc(N2CCOCC2)n1", "% Inhibition": 7, "Z score": -0.85},
      {"smiles": "CC(C)C[C@H](NC(=O)Nc1cccc(-c2nnn(C)n2)c1)C(N)=O", "% Inhibition": 10, "Z score": -1.23},
      {"smiles": "CCc1nn(C)c(OC)c1CNc1nnc(C(C)(C)C)o1", "% Inhibition": -9, "Z score": 1.15},
      {"smiles": "CC(C)C[C@@]1(C)CC(=O)N(CCC#N)C1=O", "% Inhibition": -3, "Z score": 0.44},
      {"smiles": "O=C(O)[C@H]1CCCN1Cc1coc(-c2ccc(F)cc2)n1", "% Inhibition": -1, "Z score": 0.19}
    ]}
  ]
}
